B1: h1830-S43 (bispecific antibody, human IgG4 S228P, kappa)
heavy: QVQLQESGPGLVKPSQTLSLTCTVSGGSISDGSAYWSWIRQHPGKGLEYIGFISRAGSTYNTPSLKGRVTISRDTSKNQFSLKLSSVTAADTAVYYCARSGGWLAPFDYWGRGTLVTVSSASTKGPSVFPLAPCSRSTSESTAALGCLVKDYFPEPVTVSWNSGALTSGVHTFPAVLQSSGLYSLSSVVTVPSSSLGTKTYTCNVDHKPSNTKVDKRV[human IgG4 Fc with S228P (EU numbers) not given here]GGGGSGGGGSGGGGGGEEELQMIQPEKLLLVTVGETATLHCTVTSLLPVGPVLWFRGVGPGRELIYMSGRGHFPRVTTVSDLTKRNNRDFSIRISSITPADVGTYYCVKFRKGSPEDVEFKSGPGTEMALGAKPS
light: DIVMTQSPDSLAVSLGERATINCKSSQSLFYHSNQKHSLAWYQQKPGQPPKLLIYGASTRESGVPDRFSGSGSGTDFTLTISSLQAEDVAVYYCQQYYGYPYTFGGGTKVEIKRTVAAPSVFIFPPSDEQLKSGTASVVCLLNNFYPREAKVQWKVDNALQSGNSQESVTEQDSKDSTYSLSSTLTLSKADYEKHKVYACEVTHQGLSSPVTKSFNRGEC
notes: h1830 IgG4 with SIRPγ variant S43, GS16 linker
B2: h1830-S44 (bispecific antibody, human IgG4 S228P, kappa)
heavy: QVQLQESGPGLVKPSQTLSLTCTVSGGSISDGSAYWSWIRQHPGKGLEYIGFISRAGSTYNTPSLKGRVTISRDTSKNQFSLKLSSVTAADTAVYYCARSGGWLAPFDYWGRGTLVTVSSASTKGPSVFPLAPCSRSTSESTAALGCLVKDYFPEPVTVSWNSGALTSGVHTFPAVLQSSGLYSLSSVVTVPSSSLGTKTYTCNVDHKPSNTKVDKRV[human IgG4 Fc with S228P (EU numbers) not given here]GGGGSGGGGSGGGGGGEEELQMIQPEKLLLVTVGETATLHCTVTSLLPVGPVLWFRGVGPGRELIYMSGRGHFPRVTTVSDLTKRNNVDFSIRISSITPADVGTYYCVKFRKGSPEDVEFKSGPGTEMALGAKPS
light: DIVMTQSPDSLAVSLGERATINCKSSQSLFYHSNQKHSLAWYQQKPGQPPKLLIYGASTRESGVPDRFSGSGSGTDFTLTISSLQAEDVAVYYCQQYYGYPYTFGGGTKVEIKRTVAAPSVFIFPPSDEQLKSGTASVVCLLNNFYPREAKVQWKVDNALQSGNSQESVTEQDSKDSTYSLSSTLTLSKADYEKHKVYACEVTHQGLSSPVTKSFNRGEC
notes: h1830 IgG4 with SIRPγ variant S44, GS16 linker
B3: h1830-S45 (bispecific antibody, human IgG4 S228P, kappa)
heavy: QVQLQESGPGLVKPSQTLSLTCTVSGGSISDGSAYWSWIRQHPGKGLEYIGFISRAGSTYNTPSLKGRVTISRDTSKNQFSLKLSSVTAADTAVYYCARSGGWLAPFDYWGRGTLVTVSSASTKGPSVFPLAPCSRSTSESTAALGCLVKDYFPEPVTVSWNSGALTSGVHTFPAVLQSSGLYSLSSVVTVPSSSLGTKTYTCNVDHKPSNTKVDKRV[human IgG4 Fc with S228P (EU numbers) not given here]GGGGSGGGGSGGGGGGEEELQMIQPEKLLLVTVGETATLHCTVTSLLPVGPVLWFRGVGPGRELIYMSGRGHFPRVTTVSDLTKRDNMDFSIRISSITPADVGTYYCVKFRKGSPEDVEFKSGPGTEMALGAKPS
light: DIVMTQSPDSLAVSLGERATINCKSSQSLFYHSNQKHSLAWYQQKPGQPPKLLIYGASTRESGVPDRFSGSGSGTDFTLTISSLQAEDVAVYYCQQYYGYPYTFGGGTKVEIKRTVAAPSVFIFPPSDEQLKSGTASVVCLLNNFYPREAKVQWKVDNALQSGNSQESVTEQDSKDSTYSLSSTLTLSKADYEKHKVYACEVTHQGLSSPVTKSFNRGEC
notes: h1830 IgG4 with SIRPγ variant S45, GS16 linker

In this test the target is T1, Human CD47-his (CD47-ECD-His) (human, UniProt Q08722 partial chain, limits assumed).
T1 construct: also called hCD47; free human CD47 protein
T1 sequence (Q08722 19-139 limits assumed): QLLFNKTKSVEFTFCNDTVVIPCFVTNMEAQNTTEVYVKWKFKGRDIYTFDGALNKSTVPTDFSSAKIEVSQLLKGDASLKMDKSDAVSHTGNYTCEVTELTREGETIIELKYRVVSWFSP
The test can be described thus: SPR (Biacore T200), binder captured on Protein A chip, antigen in flow. On the technique in general: Surface plasmon resonance follows binding to a sensor surface in real time, without labels.
As to B1, the Kd (commonly the free concentration of one partner at which half of the binding sites on the other are occupied at equilibrium, for simple one-to-one binding) came out at 2.13 nM.
Take B2: binding was put at a Kd of 2.99 nM.
The figure for B3 is 4.85 nM.

Values taken from US20230012428A1 (JIANGSU HENGRUI MEDICINE, published 2023).
